According to publication PMC4807272, “Structural Determinants of Oligomerization of the Aquaporin-4 Channel*” (The Journal of Biological Chemistry, 2016):

B1: AQP4 L51A, C-terminal GFP fusion (natural protein, human)
chain: MSDRPTARRWGKCGPLCTRENIMVAFKGVWTQAFWKAVTAEFLAMLIFVLASLGSTINWGGTEKPLPVDMVLISLCFGLSIATMVQCFGHISGGHINPAVTVAMVCTRKISIAKSVFYIAAQCLGAIIGAGILYLVTPPSVVGGLGVTMVHGNLTAGHGLLVELIITFQLVFTIFASCDSKRTDVTGSIALAIGFSVAIGHLFAINYTGASMNPARSFGPAVIMGNWENHWIYWVGPIIGAVLAGGLYEYVFCPDV[… about 60 residues …]
notes: aquaporin-4 (AQP4), human cDNA in pDEST47; M1 isoform (323 residues); source: HEK293, transiently transfected, in Triton X-100 lysate; not shown: GFP, C-terminal, kept
B2: AQP4 I189A, C-terminal GFP fusion (natural protein, human)
chain: MSDRPTARRWGKCGPLCTRENIMVAFKGVWTQAFWKAVTAEFLAMLIFVLLSLGSTINWGGTEKPLPVDMVLISLCFGLSIATMVQCFGHISGGHINPAVTVAMVCTRKISIAKSVFYIAAQCLGAIIGAGILYLVTPPSVVGGLGVTMVHGNLTAGHGLLVELIITFQLVFTIFASCDSKRTDVTGSAALAIGFSVAIGHLFAINYTGASMNPARSFGPAVIMGNWENHWIYWVGPIIGAVLAGGLYEYVFCPDV[… about 60 residues …]
notes: as for B1
B3: AQP4 L50A, C-terminal GFP fusion (natural protein, human)
chain: MSDRPTARRWGKCGPLCTRENIMVAFKGVWTQAFWKAVTAEFLAMLIFVALSLGSTINWGGTEKPLPVDMVLISLCFGLSIATMVQCFGHISGGHINPAVTVAMVCTRKISIAKSVFYIAAQCLGAIIGAGILYLVTPPSVVGGLGVTMVHGNLTAGHGLLVELIITFQLVFTIFASCDSKRTDVTGSIALAIGFSVAIGHLFAINYTGASMNPARSFGPAVIMGNWENHWIYWVGPIIGAVLAGGLYEYVFCPDV[… about 60 residues …]
notes: as for B1
B4: AQP4 T183A, C-terminal GFP fusion (natural protein, human)
chain: MSDRPTARRWGKCGPLCTRENIMVAFKGVWTQAFWKAVTAEFLAMLIFVLLSLGSTINWGGTEKPLPVDMVLISLCFGLSIATMVQCFGHISGGHINPAVTVAMVCTRKISIAKSVFYIAAQCLGAIIGAGILYLVTPPSVVGGLGVTMVHGNLTAGHGLLVELIITFQLVFTIFASCDSKRADVTGSIALAIGFSVAIGHLFAINYTGASMNPARSFGPAVIMGNWENHWIYWVGPIIGAVLAGGLYEYVFCPDV[… about 60 residues …]
notes: as for B1
B5: AQP4 S188D (phosphomimetic), C-terminal GFP fusion (natural protein, human)
chain: MSDRPTARRWGKCGPLCTRENIMVAFKGVWTQAFWKAVTAEFLAMLIFVLLSLGSTINWGGTEKPLPVDMVLISLCFGLSIATMVQCFGHISGGHINPAVTVAMVCTRKISIAKSVFYIAAQCLGAIIGAGILYLVTPPSVVGGLGVTMVHGNLTAGHGLLVELIITFQLVFTIFASCDSKRTDVTGDIALAIGFSVAIGHLFAINYTGASMNPARSFGPAVIMGNWENHWIYWVGPIIGAVLAGGLYEYVFCPDV[… about 60 residues …]
notes: as for B1
B6: AQP4 K181A, C-terminal GFP fusion (natural protein, human)
chain: MSDRPTARRWGKCGPLCTRENIMVAFKGVWTQAFWKAVTAEFLAMLIFVLLSLGSTINWGGTEKPLPVDMVLISLCFGLSIATMVQCFGHISGGHINPAVTVAMVCTRKISIAKSVFYIAAQCLGAIIGAGILYLVTPPSVVGGLGVTMVHGNLTAGHGLLVELIITFQLVFTIFASCDSARTDVTGSIALAIGFSVAIGHLFAINYTGASMNPARSFGPAVIMGNWENHWIYWVGPIIGAVLAGGLYEYVFCPDV[… about 60 residues …]
notes: as for B1
B7: AQP4 S188A, C-terminal GFP fusion (natural protein, human)
chain: MSDRPTARRWGKCGPLCTRENIMVAFKGVWTQAFWKAVTAEFLAMLIFVLLSLGSTINWGGTEKPLPVDMVLISLCFGLSIATMVQCFGHISGGHINPAVTVAMVCTRKISIAKSVFYIAAQCLGAIIGAGILYLVTPPSVVGGLGVTMVHGNLTAGHGLLVELIITFQLVFTIFASCDSKRTDVTGAIALAIGFSVAIGHLFAINYTGASMNPARSFGPAVIMGNWENHWIYWVGPIIGAVLAGGLYEYVFCPDV[… about 60 residues …]
notes: as for B1
B8: AQP4 TM4 compound mutant (L161A/I165A), C-terminal GFP fusion (natural protein, human)
chain: MSDRPTARRWGKCGPLCTRENIMVAFKGVWTQAFWKAVTAEFLAMLIFVLLSLGSTINWGGTEKPLPVDMVLISLCFGLSIATMVQCFGHISGGHINPAVTVAMVCTRKISIAKSVFYIAAQCLGAIIGAGILYLVTPPSVVGGLGVTMVHGNLTAGHGLAVELAITFQLVFTIFASCDSKRTDVTGSIALAIGFSVAIGHLFAINYTGASMNPARSFGPAVIMGNWENHWIYWVGPIIGAVLAGGLYEYVFCPDV[… about 60 residues …]
notes: as for B1
B9: AQP4 L72A, C-terminal GFP fusion (natural protein, human)
chain: MSDRPTARRWGKCGPLCTRENIMVAFKGVWTQAFWKAVTAEFLAMLIFVLLSLGSTINWGGTEKPLPVDMVAISLCFGLSIATMVQCFGHISGGHINPAVTVAMVCTRKISIAKSVFYIAAQCLGAIIGAGILYLVTPPSVVGGLGVTMVHGNLTAGHGLLVELIITFQLVFTIFASCDSKRTDVTGSIALAIGFSVAIGHLFAINYTGASMNPARSFGPAVIMGNWENHWIYWVGPIIGAVLAGGLYEYVFCPDV[… about 60 residues …]
notes: as for B1
B10: AQP4 I165A, C-terminal GFP fusion (natural protein, human)
chain: MSDRPTARRWGKCGPLCTRENIMVAFKGVWTQAFWKAVTAEFLAMLIFVLLSLGSTINWGGTEKPLPVDMVLISLCFGLSIATMVQCFGHISGGHINPAVTVAMVCTRKISIAKSVFYIAAQCLGAIIGAGILYLVTPPSVVGGLGVTMVHGNLTAGHGLLVELAITFQLVFTIFASCDSKRTDVTGSIALAIGFSVAIGHLFAINYTGASMNPARSFGPAVIMGNWENHWIYWVGPIIGAVLAGGLYEYVFCPDV[… about 60 residues …]
notes: as for B1
B11: AQP4 L161A, C-terminal GFP fusion (natural protein, human)
chain: MSDRPTARRWGKCGPLCTRENIMVAFKGVWTQAFWKAVTAEFLAMLIFVLLSLGSTINWGGTEKPLPVDMVLISLCFGLSIATMVQCFGHISGGHINPAVTVAMVCTRKISIAKSVFYIAAQCLGAIIGAGILYLVTPPSVVGGLGVTMVHGNLTAGHGLAVELIITFQLVFTIFASCDSKRTDVTGSIALAIGFSVAIGHLFAINYTGASMNPARSFGPAVIMGNWENHWIYWVGPIIGAVLAGGLYEYVFCPDV[… about 60 residues …]
notes: as for B1
B12: AQP4 H90A, C-terminal GFP fusion (natural protein, human)
chain: MSDRPTARRWGKCGPLCTRENIMVAFKGVWTQAFWKAVTAEFLAMLIFVLLSLGSTINWGGTEKPLPVDMVLISLCFGLSIATMVQCFGAISGGHINPAVTVAMVCTRKISIAKSVFYIAAQCLGAIIGAGILYLVTPPSVVGGLGVTMVHGNLTAGHGLLVELIITFQLVFTIFASCDSKRTDVTGSIALAIGFSVAIGHLFAINYTGASMNPARSFGPAVIMGNWENHWIYWVGPIIGAVLAGGLYEYVFCPDV[… about 60 residues …]
notes: as for B1
B13: AQP4 loop D2 compound mutant (D184A/V185A/T186A/G187A/S188A), C-terminal GFP fusion (natural protein, human)
chain: MSDRPTARRWGKCGPLCTRENIMVAFKGVWTQAFWKAVTAEFLAMLIFVLLSLGSTINWGGTEKPLPVDMVLISLCFGLSIATMVQCFGHISGGHINPAVTVAMVCTRKISIAKSVFYIAAQCLGAIIGAGILYLVTPPSVVGGLGVTMVHGNLTAGHGLLVELIITFQLVFTIFASCDSKRTAAAAAIALAIGFSVAIGHLFAINYTGASMNPARSFGPAVIMGNWENHWIYWVGPIIGAVLAGGLYEYVFCPDV[… about 60 residues …]
notes: aquaporin-4 (AQP4), human cDNA in pDEST47; M1 isoform (323 residues); 184-DVTGS-188 changed to alanines; source: HEK293, transiently transfected, in Triton X-100 lysate; not shown: GFP, C-terminal, kept
B14: AQP4 loop D2 compound mutant tagged with Venus or with mTurquoise2 (FRET pair) (natural protein)
chain: not shown
notes: aquaporin-4 (AQP4), human; M1 isoform (323 residues); Two differently tagged copies, written as one molecule; each chain carries one of the two tags; source: HEK293, transiently co-transfected, in live cells
B15: wild-type AQP4 tagged with Venus or with mTurquoise2 (FRET pair, co-transfected) (natural protein)
chain: not shown
notes: aquaporin-4 (AQP4), human; M1 isoform expressed from the wild-type construct in HEK293 (323 residues); Two differently tagged copies of one protein, written as one molecule; each chain carries one of the two tags, not both; With AQP1-Venus only the mTurquoise2 copy was present; The text speaks of the C-terminal tails, so C-terminal tags are surmised; also called AQP4-Venus; AQP4-mTurquoise2; …
B16: AQP4 loop D1 compound mutant tagged with Venus or with mTurquoise2 (FRET pair) (natural protein)
chain: not shown
notes: as for B14
B17: wild-type human AQP4, C-terminal GFP fusion (natural protein)
chain: MSDRPTARRWGKCGPLCTRENIMVAFKGVWTQAFWKAVTAEFLAMLIFVLLSLGSTINWGGTEKPLPVDMVLISLCFGLSIATMVQCFGHISGGHINPAVTVAMVCTRKISIAKSVFYIAAQCLGAIIGAGILYLVTPPSVVGGLGVTMVHGNLTAGHGLLVELIITFQLVFTIFASCDSKRTDVTGSIALAIGFSVAIGHLFAINYTGASMNPARSFGPAVIMGNWENHWIYWVGPIIGAVLAGGLYEYVFCPDV[… about 60 residues …]
notes: aquaporin-4 (AQP4), human cDNA in pDEST47; only the M1 isoform was expressed from the construct (323 residues); An untagged construct (stop codons in the GFP linker) was also made; also called AQP4 WT; AQP4-GFP; source: HEK293, transiently transfected, in Triton X-100 lysate; not shown: GFP, C-terminal, kept

Biological target: the molecule itself
Assay: native gel or EMSA; BN-PAGE (8% bis-tris gel, pH 7.0, on ice) of whole-cell lysates of transfected HEK293 cells in 1% Triton X-100 BN lysis buffer, then immunoblot (anti-AQP4 or anti-GFP) and densitometry; self-association: tetramer, dimer, monomer bands

Protein | stoichiometry N | percent of the protein as dimers [%]
B1 | 4 | 
B2 | 4 | 
B3 | 4 | 
B4 | 4 | 
B5 | 4 | 
B6 | 4 | 
B7 | 4 | 
B8 | 4 | 
B9 | 4 | 
B10 | 4 | 
B11 | 4 | 
B12 | 4 | 
B13 |  | 67

Biological target: the molecule itself
Assay: FRET or BRET; sensitized-emission FRET between Venus- and mTurquoise2-tagged copies co-transfected into live HEK293 cells; apparent FRET efficiency normalised to acceptor emission

Protein | apparent FRET efficiency [%]
B14 | 20
B15 | 44.2
B16 | 17

Biological target: the molecule itself
Assay: native gel or EMSA; BN-PAGE (8% bis-tris gel, pH 7.0, on ice) of whole-cell lysates of transfected HEK293 cells in 1% Triton X-100 BN lysis buffer, then immunoblot (anti-AQP4 or anti-GFP) and densitometry; self-association: tetramer, dimer, monomer bands
Remark: another data set of the same source

Protein | stoichiometry N
B17 | 4
